Results published in ChEMBL document CHEMBL4888484, “Replenishing the malaria drug discovery pipeline: Screening and hit evaluation of the MMV Hit Generation Library 1 (HGL1) against asexual blood stage Plasmodium falciparum ,using a nano luciferase reporter read-out” (2022).
The campaign covered roughly 150,000 compounds. About 540 (0.36%) showed an effect of 50% or more. The list shows a part of the results.

These compounds were tested on Plasmodium falciparum (assay: Primary screen in NF54 nanoGlo assay, in single point, at 2uM, 72h; a lower Z score goes with more inhibition). Conditions: timepoint 72 hour.
Format: functional, Erythrocyte
With CC(C)(CN1CCCCCC1)NC(=O)c1ccc(CO)o1 the “% Inhibition” value was 2% and the Z score was -0.37. Cc1ccc(CNC(=O)N2CC(O)(C(F)(F)F)C2)nc1 was tested, and the “% Inhibition” value was 4% and the Z score was -0.7. For CCOc1ncccc1-c1ccc(NC)nn1, the “% Inhibition” value was -2% and the Z score was 0.39. CCOC(=O)C1CCN(Cn2nc(NC3CCCCC3)sc2=S)CC1 was tested, and the “% Inhibition” value was -25% and the Z score was 3.19. CN(C)c1cc(C(=O)Nc2nncs2)ccn1 was tested, and the “% Inhibition” value was -4% and the Z score was 0.55. For CCCc1nc(C)c(CNc2ccc(C(N)=O)c(F)c2)o1, the “% Inhibition” value was -2% and the Z score was 0.36. Cc1nc2ncccn2c1C(=O)N[C@H]1CCN(Cc2ccccc2)C1 was tested, and the “% Inhibition” value was -8% and the Z score was 1.47. CC(C)(C)NC(=O)CN1CCC(CNC(=O)c2ccsc2)CC1 was tested, and the “% Inhibition” value was 0% and the Z score was 0. With NC(=O)C[C@@H]1N[C@]2(C(=O)Nc3ccccc32)[C@@H]2C(=O)N(c3ccc(Cl)cc3)C(=O)[C@H]12 the “% Inhibition” value was -8% and the Z score was 0.68. For Cc1ccccc1CCNC(=O)N(Cc1cccnc1)C1CCN(C)CC1, the “% Inhibition” value was -3% and the Z score was 0.61. With COCC[C@@H](CN1CCC=C(F)C1)NC(=O)OC(C)(C)C the “% Inhibition” value was -7% and the Z score was 0.73. CC1CCN(c2nc(N3CCCCC3)nc3c2CN(C(=O)COc2ccccc2)CC3)CC1 was tested, and the “% Inhibition” value was -12% and the Z score was 1.18. With COc1csc(C(=O)Nc2ccnn2Cc2ccsc2)c1 the “% Inhibition” value was -9% and the Z score was 0.79. With CCCC(C(=O)NCc1ccccc1CN1CCCC1CO)c1ccccn1 (configuration not stated) the “% Inhibition” value was -7% and the Z score was 1.01. COCCN1C[C@@H](CNC(=O)c2cnn3ccn(C)c23)CC1=O was tested, and the “% Inhibition” value was 8% and the Z score was -1.11. CC1CC(NCc2cc3ccccc3n2C)CCN1C (configuration not stated) was tested, and the “% Inhibition” value was 16% and the Z score was -2.04. Cc1cc(F)cc(C(=O)NCc2n[nH]c(=O)[nH]2)c1 was tested, and the “% Inhibition” value was -8% and the Z score was 0.84. In the case of O=C(NCCc1cnn[nH]1)c1ccc(-c2ncc[nH]2)s1, the “% Inhibition” value is reported as 2% and the Z score is reported as -0.3. COCC(=O)NC[C@H]1CN(C(=O)c2cccnc2O)CC12CCCCC2 was tested, and the “% Inhibition” value was -3% and the Z score was 0.54. In the case of CC(C)CNC(=O)N1CC2(CCCCC2)C[C@@H]1COCc1ccccc1, the “% Inhibition” value is reported as -8% and the Z score is reported as 1.37. C/C=C(\C)CN1C[C@H](NC(=O)CCN2CCCCC2=O)[C@@H](C2CC2)C1 was tested, and the “% Inhibition” value was 0% and the Z score was 0.06. CN1C[C@@]2(C)CN(C(=O)c3cc4ccccc4[nH]3)C[C@@](C)(C1)C2O (some centres not stated) was tested, and the “% Inhibition” value was -9% and the Z score was 1.16. CN(C)Cc1ccnc(NC(=O)Nc2cnn(C3CCC3)c2)c1 was tested, and the “% Inhibition” value was -16% and the Z score was 1.82. For Cc1cc(CN(C)C(=O)C#Cc2ccc3c(c2)OCO3)no1, the “% Inhibition” value was 3% and the Z score was -0.31. For CCn1cc(Br)cc1C(=O)Nc1ccnn1C(C)C, the “% Inhibition” value was 11% and the Z score was -1.39. For COc1ccc(/C=C/CN(C)Cc2cc(C)[nH]n2)cc1, the “% Inhibition” value was -16% and the Z score was 2.02. COc1cccc(-c2nc(S(=O)(=O)c3ccc4c(c3)OCCO4)c(NCCCN3CCOCC3)o2)c1 was tested, and the “% Inhibition” value was -11% and the Z score was 1.4. In the case of COCCN1C[C@@H](Cc2ccc(C(F)(F)F)cn2)CC1=O, the “% Inhibition” value is reported as -9% and the Z score is reported as 1.62. Cc1ccc2c(c1)N(Cc1cnn([C@H]3CCS(=O)(=O)C3)c1)CC2 was tested, and the “% Inhibition” value was 3% and the Z score was -0.46. In the case of Cc1cc(C)cc(Nc2c3c4c(cccc4n(C)c2=O)C(=O)c2ccccc2-3)c1, the “% Inhibition” value is reported as 3% and the Z score is reported as -0.65. In the case of C[C@@H](CN(C)C(=O)c1cccc(-c2ccc(F)cn2)c1)N1CCOCC1, the “% Inhibition” value is reported as -11% and the Z score is reported as 1.46. Cn1cnc2c(C(=O)N3Cc4ncccc4N4CCC[C@H]4C3)ccnc21 was tested, and the “% Inhibition” value was -15% and the Z score was 1.65. Cc1oc(-c2ccccc2Cl)nc1CN(C)C1CCOCC1 was tested, and the “% Inhibition” value was -7% and the Z score was 1.41. In the case of O=C(NCCc1ccccc1F)C(=O)NCc1ccco1, the “% Inhibition” value is reported as -19% and the Z score is reported as 2.4. CC(C)n1cc(C(=O)N(C)Cc2nccn2C)cn1 was tested, and the “% Inhibition” value was 3% and the Z score was -0.49. In the case of CCN1CCN(C(=O)c2cn3c(n2)CC[C@H](c2cc(C(F)(F)F)cc(C(F)(F)F)c2)C3)CC1, the “% Inhibition” value is reported as 4% and the Z score is reported as -0.56. In the case of Cc1n[nH]c(=O)nc1NCCc1csc(-c2ccccc2)n1, the “% Inhibition” value is reported as -4% and the Z score is reported as 0.52. O=C1CCCN1c1ccc(S(=O)(=O)N2CCC(c3nc4cc(Cl)ccc4o3)CC2)cc1 was tested, and the “% Inhibition” value was -8% and the Z score was 1.61. COc1ccc(CCC(=O)N2CCCN(C(=O)CC(C)C)CC2)cc1 was tested, and the “% Inhibition” value was -7% and the Z score was 0.86. CN(Cc1cc(C2CC2)on1)C(=O)NCc1cccc(Cl)c1F was tested, and the “% Inhibition” value was -5% and the Z score was 0.66. In the case of Cc1nc2c(c(N3CCN(CCOCCO)CC3)n1)CNC2, the “% Inhibition” value is reported as -10% and the Z score is reported as 1.79. COc1ccc(N2CCN(C(=O)C(C)C)[C@@H](C)C2=O)cc1 was tested, and the “% Inhibition” value was -7% and the Z score was 1.21. For CCc1cc(N2CCc3[nH]nc(C(=O)N(C)C)c3C2)n2nccc2n1, the “% Inhibition” value was -2% and the Z score was 0.34. For CCCn1cnnc1CN(C)Cc1nc(C)c(C)s1, the “% Inhibition” value was -10% and the Z score was 1.73. With COC[C@@H]1CN(Cc2ccccc2F)C[C@H]1c1nc(C2CC2)no1 the “% Inhibition” value was -2% and the Z score was 0.29. With O=C(NCc1ccc(Cl)cc1)N1C2CCC1CC(Oc1cccnc1)C2 (configuration not stated) the “% Inhibition” value was -16% and the Z score was 1.85. For Cc1c(C)n(C2CCCC2)c2ncnc(N3CCC[C@H](C(N)=O)C3)c12, the “% Inhibition” value was -15% and the Z score was 2.16. C[C@@H](c1nc(C(C)(C)C)no1)N1CCN(C(c2ccccc2)c2ccccc2)CC1 was tested, and the “% Inhibition” value was -18% and the Z score was 1.54. In the case of Cc1cnc(C)c(N2C[C@@H]3OC(=O)N(CCc4ccc(F)cc4)[C@@H]3C2)n1, the “% Inhibition” value is reported as -3% and the Z score is reported as 0.52. For CCOC(=O)c1cn(Cc2ccc(C)cc2)c2nc(C)ccc2c1=O, the “% Inhibition” value was -8% and the Z score was 1. In the case of Cc1cc(CON=C(N)c2ccc(CN3CCOCC3)cc2)on1, the “% Inhibition” value is reported as -7% and the Z score is reported as 0.74. With Cc1[nH]c2ccc(C(=O)OCC(=O)Nc3c(C)n(C)n(-c4ccccc4)c3=O)cc2c1C the “% Inhibition” value was -2% and the Z score was 0.3. For Cn1cc([C@@H]2CCCN2S(=O)(=O)Cc2cc(C#N)ccc2F)cn1, the “% Inhibition” value was -12% and the Z score was 2.27. With O=C1CCCN1CCN1C[C@H]2C[C@H](c3ccccc3)CC[C@@]2(C(=O)O)C1 the “% Inhibition” value was -7% and the Z score was 0.82. In the case of Cc1ccc(C(=O)NCc2ccc(Cl)cc2)cc1-n1nnc2cccnc21, the “% Inhibition” value is reported as -7% and the Z score is reported as 1.32. For Cc1nc(-c2ccc(-c3noc(Cc4c[nH]c5ccccc45)n3)cc2)cs1, the “% Inhibition” value was -14% and the Z score was 2.3. For COC(=O)CNC(=O)CCOc1ccc(C)cc1C, the “% Inhibition” value was -7% and the Z score was 1.1. With Cc1cc(O)c(C(=O)NC[C@@H](c2sccc2C)N(C)C)cn1 the “% Inhibition” value was -7% and the Z score was 0.64. For O=C(Nc1cccc2nonc12)c1c(F)cccc1F, the “% Inhibition” value was -39% and the Z score was 4.63. CN(C(=O)c1ccncc1)c1ccc(CNc2ccccn2)cc1 was tested, and the “% Inhibition” value was -3% and the Z score was 0.46. With O=C1COC2CCN(C(=O)Cc3ccc(Cl)c(Cl)c3)CC2N1 (configuration not stated) the “% Inhibition” value was -16% and the Z score was 2.28. In the case of CCc1nsc(NC2CCC(=O)NC2C2CC2)n1 (configuration not stated), the “% Inhibition” value is reported as 11% and the Z score is reported as -1.24. For Cc1ccc(CN(C)c2cc(N3CCOCC3)ncn2)cc1C, the “% Inhibition” value was 3% and the Z score was -0.65. In the case of O=C(CNc1ccc(F)c(F)c1F)NCc1ccc(F)cc1, the “% Inhibition” value is reported as -6% and the Z score is reported as 1.15. In the case of COc1nc(C)cc(C)c1COc1ccc2c(c1)CCNC2=O, the “% Inhibition” value is reported as -3% and the Z score is reported as 0.51. For O=S(=O)(N[C@@H]1C[C@H](Cn2cc(C3CC3)nn2)[C@@H](O)[C@H]1O)c1ccccc1, the “% Inhibition” value was 2% and the Z score was -0.34. In the case of CN(Cc1cscn1)C(=O)NCc1cnn(CC(F)(F)F)c1, the “% Inhibition” value is reported as -16% and the Z score is reported as 2.93. With COc1ncc(Cl)c(N2CC(C)OC3(CCCOC3)C2)n1 (configuration not stated) the “% Inhibition” value was -8% and the Z score was 1.22. In the case of N#CCC(=O)c1c(Cl)cccc1Cl, the “% Inhibition” value is reported as -4% and the Z score is reported as 0.71. In the case of O=S(=O)(c1cc(-c2nnc(C3CCC3)o2)co1)N1CCC(N2CCCCC2)CC1, the “% Inhibition” value is reported as -7% and the Z score is reported as 0.98. CC(C)OC[C@@H](O)CN1CCN(c2ccc(NC(=O)c3ccccc3)cn2)CC1 was tested, and the “% Inhibition” value was -13% and the Z score was 2.27. In the case of O=C1NCCC1N1C[C@@H]2C[C@H]1CN2Cc1ccccc1 (some centres not stated), the “% Inhibition” value is reported as 4% and the Z score is reported as -0.63. For Cc1nc(-c2ccc(C(=O)N3CCN(c4cccc(C)c4C)CC3)cc2)cs1, the “% Inhibition” value was 0% and the Z score was 0.04. In the case of COc1cc2c(cc1OC)CC(=O)N(CC(=O)N1CCc3nc[nH]c3C1)C=C2, the “% Inhibition” value is reported as -9% and the Z score is reported as 1.17. With Cc1ccccc1OC1(C(=O)O)CCN(c2ncnc3[nH]cnc23)CC1 the “% Inhibition” value was -8% and the Z score was 0.98. With Cc1cnn(CC(=O)N(C)C[C@H]2COCCO2)c1 the “% Inhibition” value was 5% and the Z score was -0.45. For CCS(=O)(=O)N1CCN(C[C@]2(c3cccc(F)c3)CCOC2)CC1, the “% Inhibition” value was 2% and the Z score was -0.23. In the case of COC(=O)Nc1ccc(NC(=O)CCC(=O)OC(C)(C)C)cc1, the “% Inhibition” value is reported as -14% and the Z score is reported as 1.29. CCCS(=O)(=O)NC[C@H](C)NCc1csc(CC)n1 was tested, and the “% Inhibition” value was -5% and the Z score was 0.94. CCCN(CC(=O)N(CCc1ccccc1)Cc1ccco1)S(=O)(=O)CC was tested, and the “% Inhibition” value was -8% and the Z score was 0.9. In the case of CCC(CC)C(=O)NCc1ccccc1OC, the “% Inhibition” value is reported as -21% and the Z score is reported as 2.76. In the case of COc1c(Br)cccc1C(=O)NCc1cc(C)nc(C)c1, the “% Inhibition” value is reported as 9% and the Z score is reported as -1.63. With CC(=O)N1CCN(CC(N)=NOCc2ccc(Cl)cc2)CC1 the “% Inhibition” value was -1% and the Z score was 0.16. CN(Cc1nncn1C)C(=O)Cn1cnc2ccccc21 was tested, and the “% Inhibition” value was -11% and the Z score was 1.62. For COc1cccc(OCCN2CCC(=O)N3CCC[C@H]23)c1, the “% Inhibition” value was 1% and the Z score was -0.07. CCNc1nccnc1N(C)C[C@H]1CCCN1C was tested, and the “% Inhibition” value was -14% and the Z score was 2.64.
